# The list shows a part of the results. Repeats are few or missing, and single values can be far off.
# What was measured:
# Assay in all cases: cell count relative to DMSO control; melanoma cells; higher = more viable cells
# Settings in all cases: library dose: low library concentration; 72 h
# [1] = system: MZ2-MEL
# [2] = system: MeWo
# [3] = system: RPMI7951
# [4] = system: RVH-421
# [5] = system: SkMel28
# [6] = system: SkMel2
# [7] = system: SkMel30
# [8] = system: SkMel5
# [9] = system: UACC257
# [10] = system: UACC62
# 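Also: cell number obtained by counting DAPI-stained nuclei in high-throughput microscope images with image analysis software, screen run in 1,536-well plates.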
SMILES,cell count [1],cell count [2],cell count [3],cell count [4],cell count [5],cell count [6],cell count [7],cell count [8],cell count [9],cell count [10]
"O=C(O)[C@@H]1[O][Sb](=[O])([O][Sb]2(=[O])[O][C@H]([C@H](O)CO)[C@H](O)[C@H](C(=O)O)[O]2)[O][C@H]([C@H](O)CO)[C@@H]1O (stereo not given in full) [stibogluconate] + COc1ccc(COc2ccc(Cc3cnc(N)nc3N)cc2OC)cc1 [GW2580] (first compound 2 µM, partner dose 1 µM)",101%,91.9%,112%,81.8%,96%,101%,115%,106%,80.6%,85.9%
"O=C(O)c1ccc2c(c1)nc(Nc1cccc(Cl)c1)c1ccncc12 + O=C(CCCCCCC(=O)Nc1ccccc1)NO [vorinostat] (first compound 0.4 µM, partner dose 0.08 µM)",103%,86.1%,95.3%,108%,109%,84.2%,92.8%,100%,117%,101%
"O=C(Nc1cc(C(F)(F)F)cc(C(F)(F)F)c1)c1cc(Cl)ccc1O + COc1cc(Nc2ncc(F)c(Nc3ccc4c(n3)NC(=O)C(C)(C)O4)n2)cc(OC)c1OC [Tamatinib] (first compound 0.016 µM, partner dose 0.4 µM)",85.1%,77.7%,98.2%,98.4%,88%,101%,91.7%,98.7%,81.3%,83.1%
"O=C(O)[C@@H]1[O][Sb](=[O])([O][Sb]2(=[O])[O][C@H]([C@H](O)CO)[C@H](O)[C@H](C(=O)O)[O]2)[O][C@H]([C@H](O)CO)[C@@H]1O (stereo not given in full) [stibogluconate] + CCN(CC)CCCCNc1ncc2cc(-c3cc(OC)cc(OC)c3)c(NC(=O)NC(C)(C)C)nc2n1 [PD173074] (first compound 2 µM, partner dose 0.1 µM)",93.9%,101%,99%,107%,113%,96.7%,94.6%,105%,98.5%,104%
"O=C(O)[C@@H]1[O][Sb](=[O])([O][Sb]2(=[O])[O][C@H]([C@H](O)CO)[C@H](O)[C@H](C(=O)O)[O]2)[O][C@H]([C@H](O)CO)[C@@H]1O (stereo not given in full) [stibogluconate] + COc1cc(Nc2ncc(F)c(Nc3ccc4c(n3)NC(=O)C(C)(C)O4)n2)cc(OC)c1OC [Tamatinib] (first compound 2 µM, partner dose 0.4 µM)",89.7%,96.4%,64.9%,95.7%,92.3%,99.5%,106%,91.7%,59.1%,86.3%
"Cn1nnc2c(C(N)=O)ncn2c1=O [temozolomide] + Cn1cncc1[C@@](N)(c1ccc(Cl)cc1)c1ccc2c(c1)c(-c1cccc(Cl)c1)cc(=O)n2C [tipifarnib] (first compound 2 µM, partner dose 0.01 µM)",91.3%,102%,86%,91.4%,77.9%,83.8%,70.7%,99.7%,58.7%,60.4%
"O=C(O)[C@@H]1[O][Sb](=[O])([O][Sb]2(=[O])[O][C@H]([C@H](O)CO)[C@H](O)[C@H](C(=O)O)[O]2)[O][C@H]([C@H](O)CO)[C@@H]1O (stereo not given in full) [stibogluconate] + Oc1cc(-c2nc(-c3ccccc3)[nH]c2-c2ccncc2)ccc1Cl [L779450] (first compound 2 µM, partner dose 0.2 µM)",79.2%,73.7%,84.1%,77.7%,71.4%,79%,88.7%,102%,81.3%,53.1%
"O=C(O)[C@@H]1[O][Sb](=[O])([O][Sb]2(=[O])[O][C@H]([C@H](O)CO)[C@H](O)[C@H](C(=O)O)[O]2)[O][C@H]([C@H](O)CO)[C@@H]1O (stereo not given in full) [stibogluconate] + O=C(Nc1ccccc1)c1cc([N+](=O)[O-])ccc1Cl [GW9662] (first compound 2 µM, partner dose 2 µM)",104%,100%,121%,129%,120%,94.8%,106%,110%,93.9%,95.5%
"O=C(O)c1ccc2c(c1)nc(Nc1cccc(Cl)c1)c1ccncc12 + CCN(CC)CCCCNc1ncc2cc(-c3cc(OC)cc(OC)c3)c(NC(=O)NC(C)(C)C)nc2n1 [PD173074] (first compound 0.4 µM, partner dose 0.1 µM)",91.5%,95.2%,109%,96.9%,104%,99.5%,96.6%,101%,77.2%,94.8%
"Cn1nnc2c(C(N)=O)ncn2c1=O [temozolomide] + O=C(O)c1ccc(-c2c[nH]c3ncc(-c4ccccc4)cc23)cc1C1CCCC1 [GSK650394] (first compound 2 µM, partner dose 0.16 µM)",76.7%,90.3%,94.1%,96.7%,74.8%,93.9%,69.3%,110%,122%,79.9%
"O=C(O)[C@@H]1[O][Sb](=[O])([O][Sb]2(=[O])[O][C@H]([C@H](O)CO)[C@H](O)[C@H](C(=O)O)[O]2)[O][C@H]([C@H](O)CO)[C@@H]1O (stereo not given in full) [stibogluconate] + CN(C)S(=O)(=O)c1ccc2c(c1)/C(=C/c1cc3c([nH]1)CCCC3)C(=O)N2 [SU6656] (first compound 2 µM, partner dose 0.4 µM)",107%,98.6%,96.2%,109%,90.9%,116%,111%,89.6%,84.7%,107%
"O=C(Nc1cc(C(F)(F)F)cc(C(F)(F)F)c1)c1cc(Cl)ccc1O + c1cc(-c2cnn3cc(-c4ccc(OCCN5CCCCC5)cc4)cnc23)ccn1 [Dorsomorphin] (first compound 0.016 µM, partner dose 0.4 µM)",95.4%,96.9%,97.4%,108%,98.9%,116%,103%,93.5%,81.7%,89.8%
"Cc1cc(N2CCOCC2)cc2[nH]c(-c3c(NC[C@@H](O)c4cccc(Cl)c4)cc[nH]c3=O)nc12 + NCC(=O)Nc1ccc(-n2nc(C(F)(F)F)cc2-c2ccc3c(ccc4ccccc43)c2)cc1 [OSU03012] (first compound 0.2 µM, partner dose 1 µM)",89.8%,55.1%,116%,111%,72.9%,77.7%,36.3%,80.4%,84.7%,70.6%
"O=C(Nc1cc(C(F)(F)F)cc(C(F)(F)F)c1)c1cc(Cl)ccc1O + COC(=O)c1sccc1S(=O)(=O)Nc1ccc(Nc2ccccc2)cc1OC [GSK0660] (first compound 0.016 µM, partner dose 1 µM)",91.7%,97.7%,103%,92.2%,94.6%,110%,107%,94.6%,88.1%,96.8%
"O=C(O)c1ccc2c(c1)nc(Nc1cccc(Cl)c1)c1ccncc12 + COc1ccc(-c2ccc3c(N4CCOCC4)nc(N4C[C@@H](C)O[C@@H](C)C4)nc3n2)cc1CO [KU0063794] (first compound 0.4 µM, partner dose 0.02 µM)",86.7%,92.6%,94.7%,99.9%,97.3%,95.3%,89%,122%,73%,108%
"O=C(O)c1ccc2c(c1)nc(Nc1cccc(Cl)c1)c1ccncc12 + COc1cc(Nc2ncc(F)c(Nc3ccc4c(n3)NC(=O)C(C)(C)O4)n2)cc(OC)c1OC [Tamatinib] (first compound 0.4 µM, partner dose 0.4 µM)",86%,80.5%,87.6%,125%,79.2%,95.7%,81.7%,94.3%,63.1%,90.7%
"O=C(O)c1ccc2c(c1)nc(Nc1cccc(Cl)c1)c1ccncc12 + COc1cc(N2CCC(N3CCN(C)CC3)CC2)ccc1Nc1ncc(Cl)c(Nc2ccccc2S(=O)(=O)C(C)C)n1 [NVP-TAE684] (first compound 0.4 µM, partner dose 0.08 µM)",88.6%,83%,114%,126%,103%,101%,87.1%,114%,85.9%,89.1%
"O=C(O)[C@@H]1[O][Sb](=[O])([O][Sb]2(=[O])[O][C@H]([C@H](O)CO)[C@H](O)[C@H](C(=O)O)[O]2)[O][C@H]([C@H](O)CO)[C@@H]1O (stereo not given in full) [stibogluconate] + NC(=O)Nc1cc(-c2cccc(F)c2)sc1C(=O)N[C@H]1CCCNC1 [AZD7762] (first compound 2 µM, partner dose 0.02 µM)",100%,103%,94.4%,88.8%,93.7%,111%,101%,111%,110%,104%
"O=C(Nc1cc(C(F)(F)F)cc(C(F)(F)F)c1)c1cc(Cl)ccc1O + CC1(C)NC(=O)N(c2ccc([N+](=O)[O-])c(C(F)(F)F)c2)C1=O [nilutamide] (first compound 0.016 µM, partner dose 1 µM)",103%,95.1%,99.7%,106%,107%,97.2%,99.4%,87.5%,89.6%,91.2%
"O=C(Nc1cc(C(F)(F)F)cc(C(F)(F)F)c1)c1cc(Cl)ccc1O + COc1ccc(-c2ccc3c(N4CCOCC4)nc(N4C[C@@H](C)O[C@@H](C)C4)nc3n2)cc1CO [KU0063794] (first compound 0.016 µM, partner dose 0.02 µM)",93.8%,100%,92.8%,127%,77.6%,102%,92.2%,101%,72.9%,88.5%
"O=C(O)c1ccc2c(c1)nc(Nc1cccc(Cl)c1)c1ccncc12 + NC(=O)Nc1cc(-c2cccc(F)c2)sc1C(=O)N[C@H]1CCCNC1 [AZD7762] (first compound 0.4 µM, partner dose 0.02 µM)",90.5%,99.1%,91.8%,125%,119%,117%,109%,114%,109%,106%

# Source: the supplement of paper PMC4604168 (melanoma cell lines)
